Data as given in the RNAGym collection of RNA variant scans (doi:10.1093/nar/gkz1192).
Read counts are not given, so values of variants with three or more changes are uncertain.

B1: CPEB3 Ribozyme (parent)
chain: UAACAGGGGGCCACAGCAGAAGCGUUCACGUCGCAGCCCCUGUCAGAUUCUGGUGAAUCUGCGAAUUCUGCUGUAUAUCUC

Variants of: B1
Test: self-cleavage, relative activity (ratio to wild type); higher = more cleavage; in vitro, sequencing
Procedure, shortened: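 CPEB3 self-cleaving ribozyme mutant libraries were made by rounds of error-prone PCR, barcoded, and transcribed in vitro with T7 RNA polymerase for 5 hours at 37°C. Cleavage occurred during transcription and a 15 min DNase I step before EDTA stop. RNAs were reverse transcribed with template switching and Illumina-sequenced, with DNA sequencing mapping barcodes to variants. Relative activity is the variant's cleaved/total read fraction divided by wild type's (minimum 5 reads), averaged across three batches.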

Variant	self-cleavage
A2G G9A U74C	0.39
A2G G24A A28G U41A A45G U72A	0.07
A2U A20G U25C U41A U60C A64G U72A	0.06
A2G C38U C62U	0.1
A3G A5U A13U A35C U72C	1.09
A3G A13G G42A G61C	0.1
A2U U26C A77U U80A	0.33
A3G A20G C32G C37U U43A U54C A64G	0.07
A3G A15G A18G A57G U76A	0.29
A2U G9A C32G G46U U54C U69A	0.04
A3G A13U U43A U67C	0.39
A2G G52A A65G U69A U72C	0.15
A3G A20U U25C U43C U58C	0.3
A3G A13U C44U U54A	0.79
A3G A21G U26C U49A A57G	0
A2G U72A A75G	0.42
A3C A35U G53A	1
A3G A20G A28G A35U U72G U76A	0.14
A3G A13U A21G U25A U69A	0.11
A2U C12U U58C U60C A64U U69C	0.17
A3G A18U A21U A28G A57U U69A G70U	0.06
A3G A20G U43A U51C G55U U60C A64G	0.13
A3G A5G A13G U66A	0.65
A2U U25C U80G	0.36

Variant	self-cleavage
A2U A28G C39G A56G U60A G73A U80A	0.23
A2G G7U U48A U49C A57G A64U U76A	0.02
A3G A21C U51G	0.16
A2U U25A G36U C50A G53A A77G	0.12
A2U G10A G24U C27G C62G A64U U69A	0.04
A2G U26C A35U A45U U69C	0.12
A2G G30A A35U U58G U80A	0.05
A3G A13G U31C C40A	0.84
A3G A5G A45G U78C	0.69
A2G G7A U49G U60A A65U	0.06
A3G A15G U26A A45C U72C U74A	0.88
A2U U48C U54G	0.34
A3C G9C A35U U41C A57G G61U	0.09
A2G G16U G36C U43G U51C A75U	0.1
A3G A18G U51C U72A	0.48
A3G A18G U48C	0.31
A3C A21G C40A U43C U76C	0.03
A2G U25C A35G A45G U49A U67C U69C	0
A2U U54C U58C	0.3
A2G G7U A65U	0.44
A2G C39G A77G	0.43
A2G U41A U43C U60C U69C A77G	0.06
A2G U60C A75U	0.08
A2G U48G U67C U74C U78C	0.07

Variant	self-cleavage
A3G A15C U49C U72C	0.43
A2G U25C U51A A77G	0.25
A2U A15U U48C A65G	0.09
A2G G16A C23A U25C U43C	0.19
A2G U43C G52C A57G U76C	0.23
A3G A5G U26A U31A U72C U78C	0.22
A3C A28U U54A A56G U60C	0.44
A3G A21G C44U A56G U69G	0.24
A2U A20G C38A C39A	0.29
A3G A15U A21G U26C U43C U76C C81U	0.05
A3C A13U A28G	0.45
A3G A13U C27U C62U	0.2
A3C A18C U26C	0.25
A3G A20G A47G U69A	0.33
A3C U51C U78C	0.94
A3G A13U C29G G53A U80G	0.18
A3G A5G U72C A75G U78A	1.14
A2U G7A A20G C29U A45C A56G G61A	0.06
A3G A5U U58C C59U U80A	0.21
A2U C11G A13G A18C A75G U80C	0.06
A3G A13G A20G U49C	0.53
A2U U51A U72C	1.16
A2G G10C C81U	0.06
A3G A5U G9A A20G A28G	0.5

Variant	self-cleavage
A3C U60C U72A U78C	0.52
A3G A13U U58C U67C U78C U80C	0.19
A3G A5U A28U A35U U41A U54A	0.3
A2U A13U G33C G42A A45U A57G U78C	0.1
A2G G9U U66C	0.26
A3G A15U A35G U54A	1.27
A3C G9A C38G A64U U78C	0.07
A3C U41A U49A G53A U78C	0.45
A2U A20U G55A U69C	0.17
A2U A20G U41A U49A A64G	0.08
A3C U43C U72C	1.05
A3G A5G U51C U60C U69A U72C	0.22
A3G A18U U49C U78C	0.25
A3G A18G A57G	0.63
A3C A5C U66A	0.54
A2G U25C U66C	0.32
A2G G6A C11U C17G U54C A57G U67A	0.04
A3G A21G A45G	0.63
A2G G6A U41C	0.13
A2G G6A U31A A65G	0.31
A2U A15G U25C U31A A45U U49C U60A	0.08
A2U U31C U66A U69C	0.2
A3G A15G A28G A56G G63A	0.35
A3C G52A A65G	1.02

Variant	self-cleavage
A2G U43C U72C G73U	0.48
A3G A15U A64G A65G	0.02
A3G A21G A28U A35G U58C A64U	0.32
A2U U26C A28G U43C	0.26
A2U A13U U25C G52A C62A U66C	0.21
A3C C12U U41G U66C U78A	0.1
A2U C23U A56G U60A U72A U78C	0.1
A3G A5G G8C U54C U58C	0.5
A3G A15G A47G C68A	0.27
A2G G7A U80C	0.48
A3G A5G U43C U60C C62G	0.1
A3C U43C U60A	0.56
A2G U26C A35G	0.92
A3G A15G U25C A28G U60C U72C	0.41
A3G A13U A18U U25A U41C C44U	0.09
A3G A18G U26A A45U U66C U69C	0.12
A2U G7U A35C U58C U69A	0.07
A3G A18U G70C	0.51
A3G A18U G36A U43C U49C U76A	0.13
A2U G8U A15U G30A U41C U51C A77G	0.06
A2U A28G A35U	0.12
A3G A15G G61C U67C U80A	0.48
A3G A5U A21C U48C U80C	0.16
A3G A18G G19U A35U C62U A64G U78G	0.12

Variant	self-cleavage
A3G A15G G33A	0.47
A3G A5U A35U U41A A45U U66A	0.13
A2G U58C U60G	0.32
A3G A18U A56U U67C	0.18
A2G U51C A65G	0.07
A3G A5G A35G	1.25
A2U U25C U31C U54C U76C	0.09
A2U U26A A64U U72C	0.3
A3G A15C G24U U41A	0.29
A2U U25A U48G A56G U58A	0.26
A3G A18G U41C	0.71
A3G A18G U54C U78C	0.51
A2G U49C U54G A56G A65G U72C	0.07
A3G A13U U60C U72C U76C	0.48
A3C A15U U31C U41C A56G	0.39
A2U A5G C44G C50G U54C C62U	0.06
A2G G16U U41C U48C	0.07
A3C G7A C12U U31A A35U	0.06
A3G A15G A56G	0.9
A2U A45C U49C U80C	0.2
A3G A5G C23U U31A U69C U78C	0.18
A3G A20G U26C C68U	0.46
A3G A13U A15U U41C A47G U69A A77U	0.24
A2U U43C U78G	0.81

Variant	self-cleavage
A2U U67C U69G U76C A77U	0.16
A2G G7A A35G A45G U54C A57G U69A	0.04
A3G A13G U26C	0.31
A2G U25C A45G A77G U80C	0.07
A2U A28U A47G U48A U60G A64G	0.06
A2G U41A U54G	0.1
A3G A13G G16A U41C A64G	0.1
A2G G42A U58G	0
A3G A13G A47G A64G A77U	0.95
A2U A15C A64G	0.73
A3G A13G A18U A35G U58C	0.08
A3G A20G U51C U54C U76C	0.76
A2U A28G A35G U60A	0.18
A3C C34U A35G U60G U74G	0.07
A3C A5G A35U U51A	0.6
A2U U25C U48C U78C	0.15
A2U C23U U49A	0.3
A3G A13C U54A U72C U80A	0.99
A2U U26C A45U U74C	0.39
A2G U31C A35G C38U	0.71
A2U A5U G63C U78C	0.44
A3C C12U A35G	0.93
A2U A20G U51A	0.4
